The structures appear in SMILES notation. Out of some 1,300 compounds screened, about 30 (2%) were called active. Inconclusive results (about 10%) are left out. Calls come from the whole dose curve; as a rule, active = well fitted inhibition curve with a large enough effect; inconclusive = small, poorly fitted or top-dose-only effect; inactive = flat fitted curve, though single readings scatter. The list shows a part of the results.
% is set by controls: 0 for no effect and ±100 for the full control effect; potency is the fitted concentration of half-maximal effect.

The assay is described as follows: qHTS for antagonists of the Thyroid Stimulation Hormone Receptor: Hit Validation in HTRF Activity in a Luteinizing Hormone Receptor Cell Line. As to conditions: LHR-expressing cell line, cAMP HTRF, antagonist mode; series mostly up to 58 µM; activity change, negative = inhibition: at the top concentration. From the text:
The thyroid-stimulating hormone receptor (TSHR) is a member of the 7 trans-membrane-spanning receptor (7TMR) family of cell surface receptors. TSHR-mediated hyperthyroidism is important in thyroid pathology. The development of small molecule antagonists of TSHR may lead to therapeutic approaches for TSHR-mediated hyperthyroidism caused by constitutively activating mutations or stimulating auto-antibodies associated with Graves' disease. Graves' disease is the leading cause of hyperthyroidism and is caused by autoantibodies that stimulate TSHR (TsAbs) causing thyroid growth and unregulated overproduction of thyroid hormones and existing treatments have liabilities (agranulocytosis). In addition, TSHRs are known to be expressed in multiple extrathyroidal tissues including bone, brain, kidney, testis, fat and cells of the immune system but the role of the TSHR in these tissues is not clear. Therefore, TSHR antagonists/inverse agonists could be used as probes of extrathyroidal TSHR function. Finally, TSHR inverse agonists, which are a subclass of antagonists that inhibit agonist-independent (or basal or constitutive) TSHR signaling, could be used to inhibit TSH-independent signaling in patients with recurrent or metastatic thyroid cancer who are receiving thyroid hormone to suppress TSH.
In collaboration between scientist from the NCGC and the NIDDK, a miniaturized HTRF high-throughput screen was developed. It's a cell based assay, where an anti cAMP antibody contains a fluorescent cryptate tag (excitation 337 nm; emission 620 nm) and the acceptor is cAMP-d2 (excitation 620 nm; emission 665 nm). When antibody and cAMP-d2 interact and are excited by a 337 nm light, a FRET occurs resulting in emission at 665 nm. The assay is competition between cAMP-d2 and cAMP (from the cell lysate). The homogeneous protocol allows for one step dispense after stimulation that is automation friendly. In order to confirm specificity of the compounds to the TSHR, a confirmatory assay was conducted on a similar family member, the Luteinizing Hormone (LH) receptor, transfected into a HEK 293 cell line, using an orthogonal detection technology to measure cAMP stimulation: antibody-based Homogeneous Time Resolved Fluorescence (HTRF).
NIH Chemical Genomics Center [NCGC]
NIH Molecular Libraries Probe Centers Network [MLPCN]
Assay Provider: Marvin Gershengorn, NIDDK
Homogeneous Time Resolved Fluorescence (HTRF) cAMP Assay. HEK 293 cells stably transfected with a vector containing the LH receptor and maintained under hygromycin selection were obtained from the laboratory of Dr. Marvin Gershengorn. Compounds were assayed using a HTRF cAMP detection kit (Cisbio) on the LH receptor transfected cell line. Briefly, 750 cells were plated in 2.5 ul/well of complete media (DMEM containing 10 % FCS, and 100 uM RO 20-1724) in 1536 well solid bottom white plates and 23 nl/well compound in DMSO solution or controls was added. Following 30 minute incubation at room temperature, 2.5 ul/well of labeled d2 cAMP and 2.5 ul/well of anti-cAMP antibody (both diluted 1:20 in lysis buffer) were added to each well using a flying reagent dispenser (Aurora Discovery, San Diego) . Plates were measured using the Envision plate reader (PerkinElmer, Boston, MA) with excitation at 330 nm and emissions of 615 nm and 660 nm.
On the technique in general: In qHTS, concentration-response curves come from the screen itself.
Turning to `Nc1ccc(C2(c3ccc(N)cc3)c3ccccc3-c3ccccc32)cc1`, the “activity change, negative = inhibition” value was inactive: 0.701%.

In the case of `C[C@]12CC[C@H]3[C@@H](CC[C@]4(O)C[C@@H](O)CC[C@]34C=O)[C@@]1(O)CC[C@@H]2C1=CC(=O)OC1`, the “activity change, negative = inhibition” value was inactive: -4.53%.

Turning to `COC(=O)C1=C(c2ccc(OC(F)(F)F)cc2)C[C@@H]2CC[C@H]1N2C(=O)N1CCC(C)CC1`, the “activity change, negative = inhibition” value is inactive: -4.89%.

Take `CN(C)CC1Oc2ccccc2OC1(O)c1ccccc1` (stereo not drawn): the “activity change, negative = inhibition” value was inactive: -2.31%.

Consider `COc1ccc(-[n+]2c(-c3ccccc3)cc(-c3ccc(C)cc3)cc2-c2ccccc2)cc1`, for which the “activity change, negative = inhibition” value was inactive: -4.98%.

Take `CCN(CC)S(=O)(=O)c1ccc(NN=C(C#N)C#N)cc1`: the “activity change, negative = inhibition” value was inactive: -2.68%.

Consider `Cc1ccc(-n2c(C)nc3ccccc3c2=O)c(C)c1`, for which the “activity change, negative = inhibition” value was inactive: 2.57%.

`Oc1ccc(-[n+]2c(-c3ccccc3)cc(-c3ccccc3)cc2-c2ccccc2)cc1`: the Potency is active: 39.8 µM.

Turning to `COC(=O)C1=C(c2ccc(-c3ccccc3)c(F)c2)C[C@@H]2CC[C@H]1N2C(=O)NCc1ccc(F)cc1`, the “activity change, negative = inhibition” value is inactive: -3.03%.

For `C[C@]12CC[C@H](O)C[C@H]1CC[C@@H]1C2CC[C@]2(C)[C@@H](C3=CC(=O)OC3)[C@@H](O)C[C@]12O` (stereo partly drawn), the “activity change, negative = inhibition” value is inactive: -4.73%.

Regarding `COC(=O)C1=C(c2ccc(-c3ccccc3)c(F)c2)C[C@@H]2CC[C@H]1N2C(=O)NCCc1ccccc1`, the “activity change, negative = inhibition” value is inactive: -8.33%.

On to `CC12CCC3C(CC=C4CC5(CCC43C)OCCO5)C1CCC2=O` (stereo not drawn), for which the “activity change, negative = inhibition” value is inactive: 1.05%.

Take `COC(=O)C1=C(c2ccc(OCc3ccccc3)cc2)C[C@@H]2CC[C@H]1N2C(=O)NCc1cccc(OC)c1`: the “activity change, negative = inhibition” value is inactive: -0.797%.

For the molecule `Cc1nc2ccccc2c(=O)n1-c1cccc(C(F)(F)F)c1`, the “activity change, negative = inhibition” value was inactive: 1.61%.

Take `CNc1ccc2oc(C[C@H]3O[C@@]4(CC[C@H]3C)O[C@H]([C@H](C)C(=O)c3ccc[nH]3)[C@H](C)C[C@H]4C)nc2c1C(=O)O`: the Potency entry was “inactive”.

Turning to `COC(=O)C1=C(c2ccc(-c3ccccc3)c(F)c2)C[C@@H]2CC[C@H]1N2C(=O)N1CCOCC1`, the “activity change, negative = inhibition” value was inactive: -5.52%.

As to `COC(=O)C1=C(c2ccc(-c3ccccc3)c(F)c2)C[C@@H]2CC[C@H]1N2C(=O)NCCCOC(C)C`, the “activity change, negative = inhibition” value is inactive: -2.75%.

For `C[C@H]1O[C@@H](OC2CC[C@]3(C=O)[C@H]4CC[C@]5(C)[C@@H](C6=CC(=O)OC6)CC[C@]5(O)[C@@H]4CC[C@]3(O)C2)CC2OC(C)(C)OC21` (stereo partly drawn), the “activity change, negative = inhibition” value was inactive: -0.216%.

As for `COC(=O)C1=C(c2ccc(-c3ccccc3)c(F)c2)C[C@@H]2CC[C@H]1N2C(=O)NCC1CC1`, the “activity change, negative = inhibition” value is inactive: -6.08%.

For `O=C(C1CCN(c2nc3ccc(Br)cc3s2)CC1)N1CCC2(CC1)OCCO2`, the “activity change, negative = inhibition” value was inactive: -2.84%.

As for `CCCCN=C[C@]12CCC(O)CC1(O)CCC1[C@@H]2CC[C@]2(C)[C@H](C3C=CC(=O)O3)CCC12O` (stereo partly drawn), the “activity change, negative = inhibition” value was inactive: -2.56%.

With `O=C(Nc1ccc2ccccc2c1)c1nn(C23CC4CC(CC(C4)C2)C3)cc1Br`, the “activity change, negative = inhibition” value is inactive: -1.5%.

Consider `Cc1ccc(-c2cc(-c3ccccc3)cc(-c3ccccc3)[n+]2-c2ccccc2)cc1`, for which the Potency was active: 42.6 µM.

As for `COc1cc(N2C(=O)CC(=O)NC2=O)cc(OC)c1OC`, the “activity change, negative = inhibition” value is inactive: 1.86%.

As for `N#CC(C#N)=NNc1ccc(-n2ccc(C(F)(F)F)n2)cc1`, the “activity change, negative = inhibition” value is inactive: -4.9%.

`COc1cc(C(C)=O)ccc1OC(=O)N(C)c1ccccc1`: the “activity change, negative = inhibition” value was inactive: 3.33%.

Regarding `Cc1ccccc1-c1nc(CS(=O)CC(=O)N2CCC3(CC2)OCCO3)c(C)o1` (stereo not drawn), the “activity change, negative = inhibition” value is inactive: 0.537%.

Regarding `COC(=O)C1=C(c2ccc(-c3ccccc3)c(F)c2)C[C@@H]2CC[C@H]1N2C(=O)NC(C)C`, the “activity change, negative = inhibition” value was inactive: -0.923%.

For the molecule `COC(=O)C1=C(c2ccc(-c3ccccc3)c(F)c2)C[C@@H]2CC[C@H]1N2C(=O)NCc1ccco1`, the “activity change, negative = inhibition” value is inactive: -4.99%.

Turning to `C[C@]12CC[C@H](O)C[C@H]1CC[C@@H]1[C@@H]2CC[C@]2(C)[C@@H](C3=CC(=O)OC3)CC[C@]12O`, the “activity change, negative = inhibition” value is inactive: -5.83%.

As for `C[C@]12CCC3C(CCC4=CC(O)CC[C@@]43/C=N/O)C1(O)CCC2C1=CC(=O)OC1` (stereo partly drawn), the “activity change, negative = inhibition” value was inactive: -3.96%.

For the molecule `COc1cc2c(cc1/C=C/[N+](=O)[O-])OCO2`, the “activity change, negative = inhibition” value was inactive: -4.92%.

Regarding `CC(=O)c1ccc2c(c1)C1C(Cl)C(Sc3ccccc3[N+](=O)[O-])CC1C(C(=O)O)N2` (stereo not drawn), the “activity change, negative = inhibition” value is inactive: -4.58%.
